The source gives no read counts; variants with many changes may rest on few reads.

Sequences and labels used below:
B1: CPEB3 Ribozyme (parent)
chain: UAACAGGGGGCCACAGCAGAAGCGUUCACGUCGCAGCCCCUGUCAGAUUCUGGUGAAUCUGCGAAUUCUGCUGUAUAUCUC

This data set covers variants of B1. The data set is described as follows: self-cleavage, relative activity (ratio to wild type); higher = more cleavage; in vitro, sequencing. The essentials: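 After error-prone PCR and barcoding, CPEB3 ribozyme mutant libraries were transcribed with T7 RNA polymerase at 37°C for 5 hours, then given 15 min with DNase I before an EDTA stop, and they cleaved during both steps. Reverse transcription with template switching preceded Illumina sequencing. Relative activity divides a variant's cleaved/total read fraction by the unmutated ribozyme's. At least 5 reads were required per variant, and three batches were averaged.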
On to UAACUGGGGGCCACAGCGGAAGCGUUCACGUCGCAGCCCCAGUCAGAUUCUGGCGAAACUGCGAAUUCUGCUGUAUAUCUC [A5U A18G U41A U54C U58A], for which the self-cleavage worked out at 0.12.

For UAACUGGGGGCCACAGCUGAAGCGUUCACGUCGCAGCCCCUGUCAGAUUCUGGUGAAUCUGAGGAUUCUGCUGUAUAUCUC [A5U A18U C62A A64G], the self-cleavage came to 0.15.

In the case of UAACUGGGGGCCACGGCAGAAGCGUACACGUCACAGCCCCUGUCAGAUCCUGGUGUAUCUGCGAACUCUGCUGUAUAUCUC [A5U A15G U26A G33A U49C A56U U66C], the self-cleavage was 0.07.

In the case of UAACUGGGGGCCACAGCUGAAGCGUUCACGUCGCAGCCCCUGUCAGAUUCUGGUGAGUCUGCGUAUUCUGCUGUAUAUCCC [A5U A18U A57G A64U U80C], the self-cleavage came to 0.15.

Consider UAACUGGGGGCCACAGCUGAAGCGUUCACGUCGCAGCCCCUGUCAGAUUCUGGUGAAUCUGCGAAUUCUGCUGUACAUCUC [A5U A18U U76C], for which the self-cleavage stood at 0.55.

For UAACUGGGGGCCACAGCGGAAGCGUUCACGUCGCAGCCCCUGCCAGAUUCAGGUGAAUCUGCGAAUUCUGCUGUAUAUCUC [A5U A18G U43C U51A], the self-cleavage is 0.68.

In the case of UAACUGGGGGCCACAGCGGAAGCGUUCACGCCGCAGCCCCAGUUAGAUUCUGGUGUAACUGCGAAUUCUGCUGUAUAUCUC [A5U A18G U31C U41A C44U A56U U58A], the self-cleavage was 0.08.

Consider UAACUGGGGGCCACGGCAGAAGCGUUCACGUCUCAGCCCCUGUCAGAUUCUGGUGAAUCUGCGAAUUCUGCUGUAUAUCCC [A5U A15G G33U U80C], for which the self-cleavage came to 0.54.

For UAACUGGGGGCCACUACAGAAGCGUACACGUCGCAGCCCCUGUCAGAUUCUGGAGAAUCUGCGAGUUCUGCUGUAUGUCUC [A5U A15U G16A U26A U54A A65G A77G], the self-cleavage was 0.13.

Regarding UAACUGGGGGCCACAGCGGUAGCGCUCACGUCGCAGCCCCUGUCAGAUUCUGGUGGAACUGCGAAUUCUGCUGUAUAUCUC [A5U A18G A20U U25C A56G U58A], the self-cleavage was 0.27.

UAACUGGGGGCCACGGCAGAAGCGUUCACGUCGCAGCCCCUGCCAGAUUCUGGUUAAUCUGCGAAUUCUGCUGUAUAUCUC [A5U A15G U43C G55U]: the self-cleavage amounted to 0.58.

In the case of UAACUGGGGGCCACAGCUGAAGCGUUCACGACGCAGCCCCAGUCAGAUUCUGGUGAAUCUGCGAAUUCUGCUGUAUAUCUC [A5U A18U U31A U41A], the self-cleavage was 0.26.

In the case of UAACUGGGGGCCACAGCAGGAGCGUUCACGUCGCAGCCCCUGUCUGAUUCUGGUGAAUCUGCGAAUUCUGCUGUACAUCUC [A5U A20G A45U U76C], the self-cleavage was found to be 0.37.

UAACUGGGGGCCACAGCUGAAGCGUUCACGUCGCUGCCCCUGUCAGAUUCUGGUGUAUCUGCGAAUUCUGCUGUAUAUCUC [A5U A18U A35U A56U]: the self-cleavage worked out at 0.18.

Regarding UAACUGGGGGCCACAGCUGAAGCGUUCACGUCGCAGCCCCUGUCAGAUUCUGGUGAAUCUGCGAAUCCUGCUGUAUCCCUC [A5U A18U U67C A77C U78C], the self-cleavage came to 0.18.

UAACUGGGGGCCACAGCAGGAGCGUUCACGUCGCAGCCCCUGUCAGAUUCUGGUGAAUCUGCGAAUUCCGCUGUAUAUCUC [A5U A20G U69C]: the self-cleavage came to 0.58.

UAACUGGGGGCCACUGCAGAAGCGUUCACGUCGCAGCCCCUGUCAGUUUCUGGUGAACCUGCGAAUUCUGCUGUAUAUCUC [A5U A15U A47U U58C]: the self-cleavage came to 0.23.

As for UAACUGGGGGCCACGGCAGAAGCGUUCACGUCGCAGUCCCUGUCAGAUUCUGGUGAAUCUGCGAAUUCUGCUGUAUACCUC [A5U A15G C37U U78C], the self-cleavage worked out at 0.56.

With UAACUGGGGGCCACAGCUGAAGCGUUCACGUCGCAGCCCCUGUCAGAUUCUGGUGAAUCUGCGAAUACUGCUGUAUAUCUC [A5U A18U U67A], the self-cleavage stood at 0.35.

For the variant UAACUGGGGGCCACAGCGGAUGCGUUCACGUCGCAGCCCCUGUCAGAAUCUGGUGAAUCUGCGAAUUCUGCUGUAUAUCUC [A5U A18G A21U U48A], the self-cleavage worked out at 0.41.

Consider UAACUGGGGGCCACUGCAGAAGCGUUCACGCCGCAGCCCCUGUCAGAUUCUGGUGAAUCUGCGAAUUCUGCUGUAUAUCCC [A5U A15U U31C U80C], for which the self-cleavage was 0.72.

UAACUGGGGGCCACUGCAGUAGCGUUCACGUCGCAGCCCCUGUCAGACUCUGGUGAAUCUGCGAAUUCUGCUGUAUAUCUC [A5U A15U A20U U48C]: the self-cleavage came out at 0.08.

As for UAACUGGGGGCCACGGCAGAAGCGUUCACGUCGCAGCCCCUGUCAGAUUCUGGUGAGUCUGCGAAUUCUGCUGUAUAUCUC [A5U A15G A57G], the self-cleavage is 0.91.

For the variant UAACUGGGGGCCACAGCAGGAGCGUUCAUGACGCAGCCCCUGUCAGAUUCUGGUGAAUCUGCGAAUUCAGCUGUACGUCUC [A5U A20G C29U U31A U69A U76C A77G], the self-cleavage was 0.2.

As to UAACUGGGGGCCACGGCAGAAGCGUUCACGUCGCAGCCCCUGUCAGAUUCUGGUGAAUCUGCGGAUUCUGCUGUAUAUCUC [A5U A15G A64G], the self-cleavage was 0.98.

In the case of UAACUGGGGGCCACUGCAGAAGCGUUUACGUCGCAGCCCCUGUCAGAUUCUGGUGAAUCUGCGGAUUCUGCUGUAUAUCUC [A5U A15U C27U A64G], the self-cleavage came to 0.14.

Regarding UAACUGGGGGCCACGGCAGAAGCGUUCACGUCGCAGCCCCUGUCGGAUUCUGGUGAAUCUGCGAAUUCUGCUGUAUUUCUC [A5U A15G A45G A77U], the self-cleavage was determined as 0.79.

With UAACUGGGGGCCACGGCAGAAGCGUUCACGGCGCAGCCCCUGUCAGAUUCCGGUGAAUCUGCGAAUUCUGCUGUAUAUCUC [A5U A15G U31G U51C], the self-cleavage is 0.78.

As for UAACUGGGGGCCACAGCUGAAACGUUCACGUCGCAGCCCCUGUCAGAUUCUGGUGGAUCUGCGAAUUCUGCUGUAUAUCUC [A5U A18U G22A A56G], the self-cleavage was found to be 0.38.

In the case of UAACUGGGGGCCACAGCUGAAGCGUUCACGUCGCAGCCCCUGUCAGAUUCUGGCGAAUCUGCGAAUUCUGCUGUAUAUCUC [A5U A18U U54C], the self-cleavage was found to be 0.24.

For UAACUGGGGGCCACAGCGGAGGCGUUCACGUCGCAGCCCCUGUCAGAUUCUGGUGAAUCUGCGAAUUCUGCUGUAUAUCUC [A5U A18G A21G], the self-cleavage was 0.45.

Consider UAACUGGGGGCCACAGCAGGAGCGUUCACGUCGCAGCCCCUGUCAGGUUCUGGCGUAUCUGCGAAUUCUGCUGUAUAUCUC [A5U A20G A47G U54C A56U], for which the self-cleavage turned out to be 0.21.

As to UAACUGGGGGCCACGGCAGAAGCGUACACGUCGCAGCCCCUGUCAUAAUCUGGUGAAUCUGCGAAUUCUGCUGUAUAUCUC [A5U A15G U26A G46U U48A], the self-cleavage was found to be 0.37.

Consider UAACUGGGGGCCACAGCAGGAGCGUCCACAUCGCAGCCCCUGCCAGAUUCUGGUGAAUCUGCGAAUUCUGCUGUAUAUCAC [A5U A20G U26C G30A U43C U80A], for which the self-cleavage worked out at 0.52.

The values above are taken from the RNAGym collection of RNA variant scans (doi:10.1093/nar/gkz1192).
